Experimental data: patent publication US20240016892A1 (SHATTUCK LABS, published 2024)

What was measured:
human CD47-His = biological target: T1, human CD47-His (human, UniProt Q08722 in part); assay: MSD sandwich 'Human CD47/41BB Dual-Binding Assay': coat h41BB-His (R&D), hSIRPa-Fc-41BBL titrated, detection printed as 'anti-CD47-His, Biotin (Acro)' (human CD47-His-Biotin by paragraph 626), Streptavidin Sulfo (same curve as the coat row)
T1 construct: CD47-His and CD47-His-Biotin are treated as one molecule; also called human CD47-His-Biotin; not shown: His tag
Experimental: (§1) To understand whether the human SIRPα-Fc-4-1BBL chimeric protein can contemporaneously bind to human 4-1BB and CD47, human 4-1BB-His was coated on plates and increasing amounts of the hSIRPα-Fc-4-1BBL, or PD-1-Fc-4-1BBL chimeric proteins were added to the plates for capture by the plate-bound human 4-1BB-His. The PD-1-Fc-4-1BBL chimeric protein was used as a negative control. Then, human CD47-His-Biotin was added to the plate for capture by any chimeric protein, which was in turn captured by the human 4-1BB. Streptavidin SULFO-TAG secondary was used for detection. Binding was assayed using an electrochemiluminescence (ECL) readout.

human 4-1BB-His [1] = biological target: T2, human 4-1BB-His (human, UniProt Q07011 24-186); assay: MSD sandwich 'Human CD47/41BB Dual-Binding Assay': coat h41BB-His (R&D), hSIRPa-Fc-41BBL titrated, detection printed as 'anti-CD47-His, Biotin (Acro)' (human CD47-His-Biotin by paragraph 626), Streptavidin Sulfo
T2 construct: not shown: His tag
Experimental: as §1

human 4-1BB-His [2] = biological target: T2, human 4-1BB-His; assay: MSD 'Human 41BB-Binding Assay': coat h41BB-His (R&D), detect anti-41BBL (R&D), anti-Goat Sulfo
Experimental: In a similar experiment, human 4-1BB-His was coated on plates and increasing amounts of the hSIRPα-Fc-4-1BBL, PD-1-Fc-4-1BBL or hSIRPα-Fc-CD40L chimeric proteins were added to the plates for capture by the plate-bound human 4-1BB-His. The hSIRPα-Fc-CD40L chimeric protein was used as a negative control for binding to human 4-1BB. Binding of the chimeric proteins to 4-1BB-His was detected using an anti-4-1BBL antibody and an anti-sheep SULFO-TAG secondary antibody. Binding was assayed using an electrochemiluminescence (ECL) readout.

human CD47-His, sequence (Q08722 19-139 limits assumed): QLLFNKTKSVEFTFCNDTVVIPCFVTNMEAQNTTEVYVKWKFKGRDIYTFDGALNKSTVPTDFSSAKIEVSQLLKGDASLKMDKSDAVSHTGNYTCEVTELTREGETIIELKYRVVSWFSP

EC50 (human CD47-His): 6.04 nM
EC50 (human 4-1BB-His [1]): 6.04 nM
EC50 (human 4-1BB-His [2]): 0.64 nM
B1: human SIRPα-Fc-4-1BBL chimeric protein (Fc fusion)
chain: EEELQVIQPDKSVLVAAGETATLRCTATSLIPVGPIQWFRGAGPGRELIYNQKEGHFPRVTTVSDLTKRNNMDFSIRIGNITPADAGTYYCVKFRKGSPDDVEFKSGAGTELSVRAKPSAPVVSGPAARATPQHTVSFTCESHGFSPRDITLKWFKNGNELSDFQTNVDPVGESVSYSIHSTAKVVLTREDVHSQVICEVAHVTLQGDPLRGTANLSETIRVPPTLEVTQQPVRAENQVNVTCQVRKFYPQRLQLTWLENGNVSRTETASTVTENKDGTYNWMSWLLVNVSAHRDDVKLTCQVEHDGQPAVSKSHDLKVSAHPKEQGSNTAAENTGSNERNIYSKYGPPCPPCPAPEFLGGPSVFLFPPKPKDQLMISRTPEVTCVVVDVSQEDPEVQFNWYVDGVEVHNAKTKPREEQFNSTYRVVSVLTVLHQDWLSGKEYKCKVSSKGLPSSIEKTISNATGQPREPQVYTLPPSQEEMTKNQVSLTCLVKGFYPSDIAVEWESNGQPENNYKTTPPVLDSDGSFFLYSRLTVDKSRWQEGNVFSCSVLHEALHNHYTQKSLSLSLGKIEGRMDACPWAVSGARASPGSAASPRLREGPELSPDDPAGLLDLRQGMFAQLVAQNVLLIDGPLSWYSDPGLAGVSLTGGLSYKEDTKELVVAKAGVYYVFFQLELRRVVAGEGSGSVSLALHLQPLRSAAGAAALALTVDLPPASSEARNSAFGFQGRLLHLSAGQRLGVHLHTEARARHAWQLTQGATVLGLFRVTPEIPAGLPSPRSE
notes: Glycosylated; forms multimers; also called hSIRPα-Fc-4-1BBL; CD172a(SIRPα)-Fc-4-1BBL
